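Method: 48-hour compound exposure of cells in 96-well plates, five concentrations, linear interpolation of endpoints. Here, GI50 denotes the concentration required for 50% inhibition of growth.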 Activity calls are given as the source filed them. No stated cut-off is given here; in the data, active = GI50 up to about 1.1 µM and inactive = higher.
tested on: NCI-H322M; test: DTP human tumour cell line panel, 48 h

Row | SMILES | GI50
1 | CCCC(c1cc(C(C)(C)C)c(O)cc1C)c1cc(C(C)(C)C)c(O)cc1C | inactive: 4.15 µM
2 | C[n+]1c2ccccc2c(/C=N\NS(=O)(=O)c2ccc(Cl)cc2)c2ccccc21 | inactive: > 100 µM
3 | COc1ccc(C(OCC2OC(n3ccc(Oc4c(F)c(F)c(F)c(F)c4F)nc3=O)CC2OP(OCCC#N)N(C(C)C)C(C)C)(c2ccccc2)c2ccc(OC)cc2)cc1 (stereo not given) | inactive: > 100 µM
4 | O=c1c2c(F)c(F)c(F)c(F)c2sc2nccn12 | inactive: 19.7 µM
5 | O=c1[nH]c(Nc2nc3ccccc3[nH]2)nc(O)c1-c1ccccc1 | inactive: > 100 µM
6 | CC1=CC(=O)/C(=C/Nc2nc(-c3ccc([N+](=O)[O-])cc3)cs2)C(=O)O1 | inactive: > 100 µM
7 | Cc1[nH]c(-c2ccccc2)c(O)c1C(=O)OC12CC3CC(CC(C3)C1)C2 | inactive: 15.8 µM
8 | CC(=O)N/C(=C\c1ccc(/C=C(\NC(C)=O)c2nc3cc(Cl)ccc3[nH]2)cc1)c1nc2ccccc2[nH]1 | inactive: > 100 µM
9 | O=C(CC(c1ccccc1)N1CCCCC1)c1ccccc1 (stereo not given) | inactive: 17.3 µM
10 | CC(=O)NNc1nc(C)c(C(=O)/C=C/c2ccc(Cl)cc2)s1 | inactive: > 100 µM
11 | CC(=NNC(=S)Nc1ccccc1)c1cccc(C(C)=NNC(=S)Nc2ccccc2)n1 | inactive: 2.86 µM
12 | N#Cc1c(-c2ccco2)cc(-c2ccc(NCc3nc4ccccc4[nH]3)cc2)nc1N | inactive: 32.7 µM
13 | CCOC(=O)C(C)(NC(=O)c1ccc(NCc2ccc3nc(NC(=O)c4ccccc4)nc(NC(=O)c4ccccc4)c3c2)cc1)C(=O)OCC | inactive: 22.2 µM
14 | COc1ccc(C(=O)C(c2ccc(OC)cc2)C2OC(=O)C(Cl)=C2Cl)cc1 (stereo not given) | inactive: > 100 µM
15 | CC(/C=C/c1ccc([N+](=O)[O-])o1)=N/N1CC(CN2CCOCC2)OC1=O (stereo not given) | inactive: 38.2 µM
16 | CSC1=N/C(=C\c2c[nH]c3ccccc23)C(=O)N1 | inactive: 56 µM
17 | CC1CNC(c2ccc(CN3CCC(CCCC4CCN(Cc5ccc(C6=NC(C)CN6)cc5)CC4)CC3)cc2)=N1 (stereo not given) | inactive: 29.6 µM
18 | COc1cc(CNCc2cc(OC)c(OC)c(OC)c2)cc(OC)c1OC | inactive: > 10 µM
19 | Cc1ccc2nc(N/N=C/c3cccc(C)n3)cc(C)c2c1 | inactive: 17.7 µM
20 | Clc1ncnc2c1ncn2CCCCCCCCCCCCn1cnc2c(Cl)ncnc21 | inactive: 13.3 µM
21 | NC(=O)NN=C(CS)CS | inactive: 17.8 µM
22 | CCOC(=O)c1cnc(-n2[nH]c3c(c2=O)CCCC3)[nH]c1=O | inactive: 60 µM

Row | SMILES | GI50
23 | NCCCCN(CCCN)Cc1ccc2ccccc2c1 | inactive: 35.4 µM
24 | CC1CCCC(C(O)CC2CC(=O)NC(=O)C2)C1O (stereo not given) | inactive: > 100 µM
25 | CC(=O)c1c2c(cc3c1CC1(C3)Cc3cc4c(c(C(C)=O)c3C1)CCCC4)CCCC2 | inactive: > 100 µM
26 | Nc1nc2c(N)cc(C(F)(F)F)cc2nc1-c1ccccc1 | inactive: > 100 µM
27 | CCOC(=O)Cc1csc(Nc2ccc(OCC)cc2)n1 | inactive: > 100 µM
28 | CC(C)CC1CC2C(=O)N(c3ccccc3)C(=O)C2c2[nH]c3ccccc3c21 (stereo not given) | inactive: > 65 µM
29 | C/C(=N\NC(=O)/C(C#N)=C\c1ccc(N(CCC#N)CCC#N)cc1)c1ccccc1 | inactive: > 10 µM
30 | CC1=Nc2c(O)nc(S)nc2NC(c2ccc(Cl)c(Cl)c2)C1 (stereo not given) | inactive: > 100 µM
31 | [O-][S+](Cc1cc2c(cc1Br)OCO2)c1ccccc1 (stereo not given) | inactive: > 100 µM
32 | CCOC(=O)N1C(c2ccccc2)C=CC(c2ccccc2)N1C(=O)OCC (stereo not given) | inactive: > 100 µM
33 | CCOC(=O)C(=[N+]=[N-])C(=O)CSC#N | inactive: > 100 µM
34 | CCCNC(=O)C(C)(Cl)C(=O)c1ccccc1O (stereo not given) | inactive: > 100 µM
35 | CCCCc1ccc(NC(=N)N)cc1 | inactive: 39.6 µM
36 | O=C1CCC2(CCC(=O)NC2=O)C(=O)N1 | inactive: > 100 µM
37 | COc1cccc(N2C(=O)CS(=O)(=O)C2c2cccc(Oc3ccccc3)c2)c1 (stereo not given) | inactive: 21.6 µM
38 | O=C1OC(c2ccccc2)=N/C1=C\c1cccc2ccccc12 | inactive: > 100 µM
39 | O=[N+]([O-])/C(Cl)=C(\Nc1ccccc1)C(Cl)=C(Cl)Cl | inactive: 39.9 µM
40 | CC(=O)NC1=C(Nc2ccc(C)cc2)C(=O)c2ccccc2C1=O | inactive: 12.8 µM
41 | NC(=O)C(=CNC(=S)Nc1ccc(S(=O)(=O)Nc2ccccn2)cc1)C(N)=O | inactive: > 100 µM
42 | Sc1nnc(C23CC4CC(CC(C4)C2)C3)n1-c1ccc(Cl)cc1 | inactive: 14.8 µM
43 | COC1=CC(=O)C2=C(C1=O)[C@H]1CC[C@]3(C)[C@@H](OC(C)=O)CC[C@H]3[C@@H]1CC2 | inactive: > 100 µM
44 | COC(=O)C1=C(c2cc(OC)c(OC)c(OC)c2)OC(c2cc(OC)c(OC)c(OC)c2)C1 (stereo not given) | inactive: 55.2 µM

Row | SMILES | GI50
45 | Cc1ccc(C(=O)CC(O)(C(F)(F)F)C(F)(F)F)cc1[N+](=O)[O-] | inactive: 2.32 µM
46 | CN1CCN([C@H]2C[C@H]3[C@@H]4CC=C5C[C@@H](O)CC[C@]5(C)[C@H]4CC[C@]3(C)C2=O)CC1 | inactive: > 100 µM
47 | COc1ccc2oc(=N)c(C(N)=S)cc2c1 | inactive: 29.2 µM
48 | CC(=O)c1cccc(NC(=O)/C(=N\NC(C)(C)C)c2c(O)c3ccccc3oc2=O)c1 | inactive: > 100 µM
49 | Cn1c(N=[N+]=[N-])cc(=O)n(C)c1=O | inactive: > 100 µM
50 | O=c1c2c(-c3ccccc3)c3ccccc3nc2cnn1-c1ccccc1 | inactive: > 100 µM
51 | C=C[C@@]1(O)CCCC2=C(C(=O)OCC)CC[C@]21C | inactive: > 100 µM
52 | NNC(=O)c1nnn(N)c1S | inactive: > 100 µM
53 | CCN1CCC(O)(/C=C/c2ccc(Cl)cc2)C(C(=O)/C=C/c2ccc(Cl)cc2)C1 (stereo not given) | inactive: 68.2 µM
54 | Cc1ccc(C(=O)O)c(CC2Cc3c(C)cccc3C2=O)c1 (stereo not given) | inactive: > 100 µM
55 | [N-]=[N+]=CC(=O)OCCCCl | inactive: > 100 µM
56 | Cc1ccc(-n2cc(-c3ccc(Cl)cc3)c3c(NN)ncnc32)cc1 | inactive: 2.08 µM
57 | COc1cccc2c1C(=O)C1(O)CCCCC21 (stereo not given) | inactive: > 100 µM
58 | COc1ccc(C2c3cc4c(cc3OC(O)(CO)C2C(=O)O)OCO4)cc1.COc1ccc(C2c3cc4c(cc3OC3(O)COC(=O)C23)OCO4)cc1 (stereo not given) | inactive: 39.6 µM
59 | Cc1ccc(NC(=O)CCC(CC(=O)C(C)(C)C)=NNC(=O)C(=O)NN)cc1C | inactive: > 100 µM
60 | CC1(C)CC(=O)c2c(nc3ccc4ccccc4c3c2-c2ccc(NC(=O)CCCCCCCCC(=O)Nc3ccc(-c4c5c(nc6ccc7ccccc7c46)CC(C)(C)CC5=O)cc3)cc2)C1 | inactive: > 100 µM
61 | COC(=O)[C@@H]1O[C@]12C(CO[Si](C)(C)C(C)(C)C)OC(n1ccc(=O)[nH]c1=O)C2O[Si](C)(C)C(C)(C)C (stereo not given in full) | inactive: 35.6 µM
62 | CC(=O)OCC1(C)C(OC(C)=O)CCC2(C)C(CC(OC(C)=O)C3=CCOC3=O)C(O)(CO)CCC12 (stereo not given) | inactive: > 100 µM
63 | CCC1(CN(C)C)CC/C(=C\c2ccc(OC)cc2)C1=O (stereo not given) | inactive: > 100 µM
64 | CN(C)Cc1ccc(-c2cc3onc(-c4ccccc4)c3c(=O)n2C)cc1 | inactive: 40.7 µM
65 | COc1c(OC)c(OC)c2c(=O)cc(-c3ccc(OC(C)C)cc3)oc2c1OC | inactive: > 37.3 µM
